Test results published in patent US20230039157A1 (HCW BIOLOGICS, published 2023).

Biological target: T1, IL-2Rβ and common γ chain on 32Dβ cells
T1 sequence (P16297 whole entry, species assumed, looked up): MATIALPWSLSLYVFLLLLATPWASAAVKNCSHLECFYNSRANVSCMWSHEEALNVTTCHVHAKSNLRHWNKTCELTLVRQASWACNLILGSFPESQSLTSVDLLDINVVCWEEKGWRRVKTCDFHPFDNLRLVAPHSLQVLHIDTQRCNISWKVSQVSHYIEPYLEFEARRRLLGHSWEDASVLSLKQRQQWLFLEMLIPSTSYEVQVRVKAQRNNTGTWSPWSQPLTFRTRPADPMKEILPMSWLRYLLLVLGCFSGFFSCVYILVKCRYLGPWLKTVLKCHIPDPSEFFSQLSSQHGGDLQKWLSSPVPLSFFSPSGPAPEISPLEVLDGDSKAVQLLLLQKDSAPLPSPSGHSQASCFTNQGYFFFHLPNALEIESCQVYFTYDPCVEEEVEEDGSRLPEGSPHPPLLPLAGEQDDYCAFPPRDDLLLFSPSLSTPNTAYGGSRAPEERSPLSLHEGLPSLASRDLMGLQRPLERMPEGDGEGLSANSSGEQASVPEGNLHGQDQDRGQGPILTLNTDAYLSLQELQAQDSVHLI
T1 sequence (P34902 whole entry, species assumed, looked up): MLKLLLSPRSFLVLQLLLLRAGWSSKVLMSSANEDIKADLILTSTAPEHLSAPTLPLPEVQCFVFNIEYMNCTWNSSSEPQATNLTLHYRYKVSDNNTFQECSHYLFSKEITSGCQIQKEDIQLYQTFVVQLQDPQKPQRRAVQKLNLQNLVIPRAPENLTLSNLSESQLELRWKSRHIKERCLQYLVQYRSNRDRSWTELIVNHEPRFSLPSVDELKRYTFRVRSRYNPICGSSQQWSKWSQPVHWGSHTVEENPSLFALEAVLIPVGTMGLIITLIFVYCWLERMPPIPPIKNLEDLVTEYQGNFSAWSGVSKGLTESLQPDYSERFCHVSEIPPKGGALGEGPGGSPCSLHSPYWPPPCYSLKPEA
Assay: cell-based or functional assay

B1: IL-15/TF/IL-15 single-chain chimeric polypeptide (other)
chain: [omitted - about 120 residues]SGTTNTVAAYNLTWKSTNFKTILEWEPKPVNQVYTVQISTKSGDWKSKCFYTTDTECDLTDEIVKDVKQTYLARVFSYPAGNVESTGSAGEPLYENSPEFTPYLETNLGQPTIQSFEQVGTKVNVTVEDERTLVRRNNTFLSLRDVFGKDLIYTLYYWKSSSSGKKTAKTNTNEFLIDVDKGENYCFSVQAVIPSRTVNRKSTDSPVECMGQEKGEFRE[omitted - about 120 residues]
- EC50 of 32Dβ cell proliferation (WST1, absorbance at 450 nM): 0.161 nM
